# Test results reported in the supplement of paper PMC8728848.
# Some of the results follow.
# B1: Strep tagII-anxA1 (Homo sapiens), P04083 (protein)
# chain: MAMVSEFLKQAWFIENEEQEYVQTVKSSKGGPGSAVSPYPTFNPSSDVAALHKAIMVKGVDEATIIDILTKRNNAQRQQIKAAYLQETGKPLDETLKKALTGHLEEVVLALLKTPAQFDADELRAAMKGLGTDEDTLIEILASRTNKEIRDINRVYREELKRDLAKDITSDTSGDFRNALLSLAKGDRSEDFGVNEDLADSDARALYEAGERRKGTDVNVFNTILTTRSYPQLRRVFQKYTKYSKHDMNKVLDLELKGDIEKCLTAIVKCATSKPAFFAEKLHQAMKGVGTRHKALIRIMVSRSEIDMNDIKAFYQKMYGISLCQAILDETKGDYEKILVALCGGN
# What was measured:
# Experiment in all cases: glycan array binding signal (z-score within array); higher = stronger binding
# Conditions in all cases: glycan notation: IUPAC condensed, linker removed
# [1] = target: Fuc(a1-2)Gal(b1-4)[Fuc(a1-3)]GlcNAc(b1-2)Man(a1-6)[Fuc(a1-2)Gal(b1-4)[Fuc(a1-3)]GlcNAc(b1-2)Man(a1-3)]Man(b1-4)GlcNAc(b1-4)[Fuc(a1-6)]GlcNAc
# Summary of the method: (§1)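 Columns mapping to the same glycan were averaged after glycan names were converted to IUPAC-condensed notation. The data come from 3228 arrays in the Consortium for Functional Glycomics database, limited to those with an available protein sequence. Binding is reported as a within-array Z-score averaged across arrays of one protein sequence and across linkers.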
# [2] = target: Fuc(a1-2)Gal(b1-4)[Fuc(a1-3)]GlcNAc(b1-2)[Fuc(a1-2)Gal(b1-4)[Fuc(a1-3)]GlcNAc(b1-4)]Man(a1-3)[Fuc(a1-2)Gal(b1-4)[Fuc(a1-3)]GlcNAc(b1-2)Man(a1-6)]Man(b1-4)GlcNAc(b1-4)GlcNAc
# Summary of the method: as §1
# [3] = target: Fuc(a1-2)Gal(b1-4)[Fuc(a1-3)]GlcNAc(b1-3)Gal(b1-4)[Fuc(a1-3)]GlcNAc
# Summary of the method: as §1
# [4] = target: Fuc(a1-2)Gal(b1-4)[Fuc(a1-3)]GlcNAc(b1-3)Gal(b1-4)[Fuc(a1-3)]GlcNAc(b1-3)Gal(b1-4)[Fuc(a1-3)]GlcNAc
# Summary of the method: as §1
# [5] = target: Fuc(a1-2)Gal(b1-4)[Fuc(a1-3)]GlcNAc(b1-3)GalNAc
# Summary of the method: as §1
# [6] = target: Fuc(a1-2)Gal(b1-4)[Fuc(a1-3)]GlcNAc(b1-3)[Neu5Ac(a2-6)Gal(b1-4)GlcNAc(b1-6)]Gal(b1-4)Glc
# Summary of the method: as §1
# [7] = target: Fuc(a1-2)Gal6S(b1-3)GlcNAc
# Summary of the method: as §1
# [8] = target: Fuc(a1-2)Gal6S(b1-3)GlcNAc6S
# Summary of the method: as §1
# Fuc(a1-2)Gal6S(b1-4)Glc = target: Fuc(a1-2)Gal6S(b1-4)Glc
# Summary of the method: as §1
# [9] = target: Fuc(a1-2)Gal6S(b1-4)Glc6S
# Summary of the method: as §1
# [10] = target: Fuc(a1-2)Gal6S(b1-4)GlcNAc
# Summary of the method: as §1
# Fuc(a1-2)[Gal(a1-3)]Gal = target: Fuc(a1-2)[Gal(a1-3)]Gal
# Summary of the method: as §1
# [11] = target: Fuc(a1-2)[Gal(a1-3)]Gal(b1-3)GalNAc
# Summary of the method: as §1
# [12] = target: Fuc(a1-2)[Gal(a1-3)]Gal(b1-3)GlcNAc
# Summary of the method: as §1
# [13] = target: Fuc(a1-2)[Gal(a1-3)]Gal(b1-3)GlcNAc(b1-2)Man(a1-3)[Fuc(a1-2)[Gal(a1-3)]Gal(b1-3)GlcNAc(b1-2)Man(a1-6)]Man(b1-4)GlcNAc(b1-4)GlcNAc
# Summary of the method: as §1
# [14] = target: Fuc(a1-2)[Gal(a1-3)]Gal(b1-3)GlcNAc(b1-2)Man(a1-3)[Fuc(a1-2)[Gal(a1-3)]Gal(b1-3)GlcNAc(b1-2)Man(a1-6)]Man(b1-4)GlcNAc(b1-4)[Fuc(a1-6)]GlcNAc
# Summary of the method: as §1
# [15] = target: Fuc(a1-2)[Gal(a1-3)]Gal(b1-3)GlcNAc(b1-3)GalNAc
# Summary of the method: as §1
# [16] = target: Fuc(a1-2)[Gal(a1-3)]Gal(b1-4)Glc
# Summary of the method: as §1
# [17] = target: Fuc(a1-2)[Gal(a1-3)]Gal(b1-4)GlcNAc
# Summary of the method: as §1
# [18] = target: Fuc(a1-2)[Gal(a1-3)]Gal(b1-4)GlcNAc(b1-2)Man(a1-3)[Fuc(a1-2)[Gal(a1-3)]Gal(b1-4)GlcNAc(b1-2)Man(a1-6)]Man(b1-4)GlcNAc(b1-4)GlcNAc
# Summary of the method: as §1
# [19] = target: Fuc(a1-2)[Gal(a1-3)]Gal(b1-4)GlcNAc(b1-2)Man(a1-3)[Fuc(a1-2)[Gal(a1-3)]Gal(b1-4)GlcNAc(b1-2)Man(a1-6)]Man(b1-4)GlcNAc(b1-4)[Fuc(a1-6)]GlcNAc
# Summary of the method: as §1
# [20] = target: Fuc(a1-2)[Gal(a1-3)]Gal(b1-4)GlcNAc(b1-3)GalNAc
# Summary of the method: as §1
# [21] = target: Fuc(a1-2)[Gal(a1-3)]Gal(b1-4)GlcNAc(b1-6)GalNAc
# Summary of the method: as §1
# [22] = target: Fuc(a1-2)[Gal(a1-3)]Gal(b1-4)[Fuc(a1-3)]Glc
# Summary of the method: as §1
# [23] = target: Fuc(a1-2)[Gal(a1-3)]Gal(b1-4)[Fuc(a1-3)]GlcNAc
# Summary of the method: as §1
# [24] = target: Fuc(a1-2)[Gal(a1-3)]Gal(b1-4)[Fuc(a1-3)]GlcNAc(b1-3)GalNAc
# Summary of the method: as §1
# [25] = target: Fuc(a1-2)[Gal(a1-4)]Gal(b1-4)GlcNAc
# Summary of the method: as §1
# [26] = target: Fuc(a1-2)[GalNAc(a1-3)]Gal
# Summary of the method: as §1
# [27] = target: Fuc(a1-2)[GalNAc(a1-3)]Gal(b1-3)GalNAc(a1-3)[Fuc(a1-2)]Gal(b1-4)GlcNAc
# Summary of the method: as §1
# [28] = target: Fuc(a1-2)[GalNAc(a1-3)]Gal(b1-3)GlcNAc
# Summary of the method: as §1
# [29] = target: Fuc(a1-2)[GalNAc(a1-3)]Gal(b1-3)GlcNAc(b1-2)Man(a1-3)[Fuc(a1-2)[GalNAc(a1-3)]Gal(b1-3)GlcNAc(b1-2)Man(a1-6)]Man(b1-4)GlcNAc(b1-4)GlcNAc
# Summary of the method: as §1
# [30] = target: Fuc(a1-2)[GalNAc(a1-3)]Gal(b1-3)GlcNAc(b1-2)Man(a1-3)[Fuc(a1-2)[GalNAc(a1-3)]Gal(b1-3)GlcNAc(b1-2)Man(a1-6)]Man(b1-4)GlcNAc(b1-4)[Fuc(a1-6)]GlcNAc
# Summary of the method: as §1
# [31] = target: Fuc(a1-2)[GalNAc(a1-3)]Gal(b1-3)GlcNAc(b1-3)GalNAc
# Summary of the method: as §1
# [32] = target: Fuc(a1-2)[GalNAc(a1-3)]Gal(b1-3)GlcNAc(b1-6)GalNAc
# Summary of the method: as §1
# [33] = target: Fuc(a1-2)[GalNAc(a1-3)]Gal(b1-4)Glc
# Summary of the method: as §1
# [34] = target: Fuc(a1-2)[GalNAc(a1-3)]Gal(b1-4)GlcNAc
# Summary of the method: as §1
# [35] = target: Fuc(a1-2)[GalNAc(a1-3)]Gal(b1-4)GlcNAc(b1-2)Man(a1-3)[Fuc(a1-2)[GalNAc(a1-3)]Gal(b1-4)GlcNAc(b1-2)Man(a1-6)]Man(b1-4)GlcNAc(b1-4)GlcNAc
# Summary of the method: as §1
# [36] = target: Fuc(a1-2)[GalNAc(a1-3)]Gal(b1-4)GlcNAc(b1-2)Man(a1-3)[Fuc(a1-2)[GalNAc(a1-3)]Gal(b1-4)GlcNAc(b1-2)Man(a1-6)]Man(b1-4)GlcNAc(b1-4)[Fuc(a1-6)]GlcNAc
# Summary of the method: as §1
binder,measurement,setting,value
B1,glycan array binding signal (z-score),[1],3.12
same,glycan array binding signal (z-score),[2],1.11
same,glycan array binding signal (z-score),[3],-0.652
same,glycan array binding signal (z-score),[4],0.054
same,glycan array binding signal (z-score),[5],-0.317
same,glycan array binding signal (z-score),[6],0.406
same,glycan array binding signal (z-score),[7],0.062
same,glycan array binding signal (z-score),[8],1.69
same,glycan array binding signal (z-score),Fuc(a1-2)Gal6S(b1-4)Glc,0.539
same,glycan array binding signal (z-score),[9],1.09
same,glycan array binding signal (z-score),[10],0.61
same,glycan array binding signal (z-score),Fuc(a1-2)[Gal(a1-3)]Gal,-0.612
same,glycan array binding signal (z-score),[11],1.68
same,glycan array binding signal (z-score),[12],1.29
same,glycan array binding signal (z-score),[13],1.29
same,glycan array binding signal (z-score),[14],2.17
same,glycan array binding signal (z-score),[15],-0.324
same,glycan array binding signal (z-score),[16],-0.314
same,glycan array binding signal (z-score),[17],-0.317
same,glycan array binding signal (z-score),[18],1.69
same,glycan array binding signal (z-score),[19],0.081
same,glycan array binding signal (z-score),[20],-0.68
same,glycan array binding signal (z-score),[21],-0.738
same,glycan array binding signal (z-score),[22],-0.689
same,glycan array binding signal (z-score),[23],0.368
same,glycan array binding signal (z-score),[24],-0.675
same,glycan array binding signal (z-score),[25],-0.484
same,glycan array binding signal (z-score),[26],-0.39
same,glycan array binding signal (z-score),[27],-0.615
same,glycan array binding signal (z-score),[28],0.999
same,glycan array binding signal (z-score),[29],0.721
same,glycan array binding signal (z-score),[30],0.353
same,glycan array binding signal (z-score),[31],-0.568
same,glycan array binding signal (z-score),[32],-0.634
same,glycan array binding signal (z-score),[33],-0.734
same,glycan array binding signal (z-score),[34],0.675
same,glycan array binding signal (z-score),[35],-0.043
same,glycan array binding signal (z-score),[36],1.15
